The text below walks through data of PubChem BioAssay AID1346428 (National Center for Advancing Translational Sciences (NCATS), 2018).

“And” between values parts separate entries of the source, which are not always exact repeats. Equal values may be shown once. The campaign covered roughly 48,000 compounds. About 1,200 (2.5%) were called active. Not shown: some 2% with an inconclusive outcome.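 How the source made its calls: active means activation of at least 60% and not above a set upper limit (about 1 call in 100 departs from these limits); inconclusive means activation of 40% to 60%, or above that upper limit; inactive means activation under 40%.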 The list shows a part of the results.

The target in the assay is Probable G-protein coupled receptor 32 (Homo sapiens) (UniProt O75388). The experiment in a line: qHTS for Agonists of Human Resolvin D1 Receptor DRV1. To be noted: CHO-K1 GPR32 beta-arrestin PathHunter luminescence, 90 min; at 76.9 µM; active compounds read high; zero percent set by DMSO-only wells. The gist of the method: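 Beta-arrestin recruitment read-out: luminescence from complemented beta-Gal in CHO-K1 GPR32 PathHunter cells, measured 1 h after detection reagent at ambient temperature following 90 min compound exposure at 37 °C; DMSO served as basal (EC0) control.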
Chain of UniProt O75388 (O75388 whole entry, looked up): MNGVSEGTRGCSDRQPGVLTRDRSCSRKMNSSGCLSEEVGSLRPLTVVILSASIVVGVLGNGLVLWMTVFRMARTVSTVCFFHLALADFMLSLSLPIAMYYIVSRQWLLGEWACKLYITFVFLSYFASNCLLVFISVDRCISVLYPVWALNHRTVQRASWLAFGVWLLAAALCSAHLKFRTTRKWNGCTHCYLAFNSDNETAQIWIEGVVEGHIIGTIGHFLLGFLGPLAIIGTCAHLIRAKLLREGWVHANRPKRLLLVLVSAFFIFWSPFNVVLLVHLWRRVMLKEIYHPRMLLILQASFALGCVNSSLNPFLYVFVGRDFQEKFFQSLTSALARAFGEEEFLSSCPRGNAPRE
As for `Cc1ccc2c(c1)c(=O)c1ccccc1n2CCCC(=O)Nc1c(F)cccc1F`, the activation was inactive: 11.3%.

`CCC(=O)N1CCc2cc(S(=O)(=O)CCC(=O)NCc3cccc(OC)c3)ccc21`: the activation was inactive: -0.372%.

For the molecule `C=CCN1CCc2c(cc(O)c(O)c2Br)[C@@H](c2ccccc2)C1`, the activation is inactive: -5.37%.

In the case of `Cc1cccc(Cn2c(SCc3ccc(C(=O)NC4CCCCC4)cc3)nc3ccncc32)c1`, the activation was inactive: -6.01%.

On to `COc1ccc(NC(=O)c2c(C)oc3ccc(O)c(CN4CCN(Cc5ccccc5)CC4)c23)cc1`, for which the activation was inactive: -23.9%.

Regarding `CCOc1ccc(NC(=O)CCS(=O)(=O)c2ccc(Br)cc2)cc1`, the activation is inactive: 1.79%.

In the case of `COc1ccc(/C=C(/C#N)c2nc(-c3ccc(Br)cc3)cs2)cc1`, the activation is inactive: 14%.

With `CCOC(=O)c1ccc(N2C(=O)c3n[nH]c(-c4cccs4)c3C2c2ccc(Cl)cc2Cl)cc1` (stereo not drawn), the activation is inactive: -1.48%.

Turning to `Cc1cc(Br)ccc1NC(=O)C1CCN(S(=O)(=O)c2ccc(Br)s2)CC1`, the activation was inactive: 25.9%.

`Cc1ccc2c(c1)-c1c(cnn1CC(=O)Nc1ccccc1C#N)CO2`: the activation is inactive: -22.7%.

Turning to `CCc1ccc(C2=NN(CCC(=O)NCCc3ccc(Cl)cc3)C(=O)CC2)cc1`, the activation is inactive: -20%.

Regarding `Cc1ccc(C(=O)COC(=O)CCC(=O)Nc2ccc(Oc3cc(C)ccc3C(C)C)cc2)cc1`, the activation was inactive: -24.9%.

As to `CC(=O)N1CCCc2cc(S(=O)(=O)N3CCCC(C(=O)N4CCN(c5cc(C)ccc5C)CC4)C3)ccc21` (stereo not drawn), the activation is inactive: 20.4%.

As for `Cc1ccc(OC(=O)CSc2nnc(CNC(=O)c3ccccc3)o2)cc1`, the activation is inactive: 4.97%.

For the molecule `CCCn1c2ccccc2c2cnn(CC(=O)NC(CCSC)C(=O)OC)c(=O)c21` (stereo not drawn), the activation is inactive: 10.8%.

Regarding `Cc1ccc(CCNC(=O)CCSCc2ccccc2Cl)cc1`, the activation is inactive: -12.6%.

On to `C[C@@H]1C[C@H]2[C@@H]3C[C@H](F)C4=CC(=O)C(Cl)=C[C@]4(C)[C@@]3(F)[C@@H](O)C[C@]2(C)[C@@]1(O)C(=O)CO`, for which the activation is inactive: -3.99%.

Regarding `CCOC(=O)c1nnc2c(-c3ccc(Cl)cc3)c(C)nn2c1C`, the activation is inactive: -1.9%.

For the molecule `Cc1c(C(=O)NCCN(C)C)sc2nc3n(c(=O)c12)CCC3`, the activation is inactive: 5.96%.

With `Cc1cccc(NC(=O)Cc2csc(COc3cccc(C)c3)n2)c1`, the activation is inactive: 1.95%.

`CCOC(=O)Cn1c(=O)n(C2CCCCC2)c2nc(-c3cccc(OC)c3)nc(C(N)=O)c21`: the activation is inactive: -0.33%.

`Cc1cc(C)cc(NC(=O)CCc2c(C)nc3c4cccnc4nn3c2C)c1`: the activation was inactive: 1.22%.

Take `Cc1cccc(C(=O)NCC(=O)OCc2cc(=O)n3nc(C4CC4)sc3n2)c1`: the activation was inactive: 5.98%.

Regarding `CCCNC(=O)N1CCN(S(=O)(=O)c2ccc3c(ccn3C)c2)CC1`, the activation was inactive: 16.2%.

For the molecule `COc1cc2c(c(OC)c1)C(c1cc(OC)c(OC)c(OC)c1)CC(=O)N2` (stereo not drawn), the activation is inactive: 11.2%.

For `Cc1c2cnn(-c3ccccc3)c(=O)c2c(C)n1CC(=O)NCc1ccccc1`, the activation is inactive: 15.2%.

As for `Cc1ccc(Cl)cc1NS(=O)(=O)c1cc2c3c(c1)CC(=O)N3CCC2`, the activation was inactive: -16.4%.

In the case of `Cc1cccc(-n2c(SCC(=O)c3ccccc3)nnc2-c2ccc(Br)cc2)c1`, the activation was inactive: -7.99%.

In the case of `CCOc1ccc(S(=O)(=O)Nc2ccc(-c3ccc(OC)nn3)cc2)cc1`, the activation is inactive: -0.739%.

On to `CCC(Sc1nc2nccnc2c(=O)n1Cc1ccc(C)cc1)C(=O)NC1CCCCC1` (stereo not drawn), for which the activation was inactive: -19.5%.

For `CCc1nn2c(=O)c(S(=O)(=O)Nc3cccc(F)c3)c(C)nc2s1`, the activation was inactive: 12.6%.

For the molecule `CCOC(=O)C1CCCN(S(=O)(=O)c2csc(C(N)=O)c2)C1` (stereo not drawn), the activation was inactive: 0.242%.

In the case of `COc1ccccc1N1CCN(C(=O)c2cc3ccc4ccc(C)[nH]c4c3n2)CC1`, the activation is inactive: 18.5%.

For the molecule `CCOc1ccc(-c2cc3nc(C4CCN(C(=O)OC(C)(C)C)CC4)c(C(=O)Nc4ccc(C)cc4C)cn3n2)cc1`, the activation was inactive: -10.5%.

For the molecule `Cc1ccc(CNC(=O)Cn2c(=O)n(-c3cccc(Cl)c3)c(=O)c3sc4ccccc4c32)cc1`, the activation is inactive: -19.3%.

For the molecule `COC(=O)c1ccc(O)cc1`, the activation is inactive: 14.8%.

Regarding `CC(CNC(=O)CCCn1c(=O)c2cccn2c2cccnc21)c1ccccc1` (stereo not drawn), the activation was inactive: -13.5%.

Consider `O=C(c1ccc(CS(=O)c2ccccc2Cl)o1)N1CCN(c2cccc(Cl)c2)CC1` (stereo not drawn), for which the activation is inactive: -6.54%.

As to `Cc1ccccc1Nc1c(-c2ccncc2)nc2ccc(Cl)cn12`, the activation was inactive: -26.8%.

Consider `COc1cccc(CNC(=O)c2ccc(NC(=O)N3CC(C)Sc4ccccc43)cc2)c1` (stereo not drawn), for which the activation was inactive: -16.8%.

For the molecule `CCOc1cccc2sc(N(CCN(CC)CC)C(=O)c3ccco3)nc12`, the activation is inactive: 15.3%.

As for `CC(C)(C)OC(=O)N1CCC(c2c(C(=O)N3CCN(C(=O)c4ccco4)CC3)cnn2-c2ccccc2)CC1`, the activation is inactive: 4.55%.

As to `COc1ccc(CCNC(=O)c2ccc(CNS(=O)(=O)c3ccccc3)cc2)cc1OC`, the activation is inactive: 22.5%.

`COc1cc(NC(=O)c2ccc(NC(=O)N3CCSc4ncccc43)cc2)cc(OC)c1`: the activation is inactive: -2.88%.

Regarding `O=C(CSc1cn(CC(=O)N2CCCC2)c2ccccc12)Nc1cc(C(F)(F)F)ccc1Cl`, the activation is inactive: -6.37%.

For `Cc1ccc2nc(Cl)c3cc(C(=O)NC4CCCCCC4)sc3c2c1`, the activation is inactive: -15.8%.

Take `CCC1CN(C(=O)Nc2ccc(C(=O)O)cc2)c2cc(Cl)ccc2O1` (stereo not drawn): the activation was inactive: -23%.

In the case of `CCOc1ccc(NC(=O)CN2CCN(c3ccc(Cl)cc3)CC2)cc1`, the activation is inactive: -0.0626%.

`COc1ccc(OC)c(CCNC(=O)c2cc3c(=O)n(C)c4ccccc4c3n2C)c1`: the activation is inactive: -3.79%.

With `O=C(c1cc(F)cc(F)c1)N1CCC(c2nc(-c3ccc(S(=O)(=O)N4CCCC4)cc3)no2)CC1`, the activation was inactive: -3.22%.

Regarding `COc1ccc(CN(C(=O)Cc2coc3ccc(C)cc23)C2CCS(=O)(=O)C2)cc1` (stereo not drawn), the activation is inactive: -0.254%.

Turning to `CCOC(=O)c1cccc(NC(=O)C2CCCN(S(=O)(=O)c3cc(Br)cc4c3N(C(=O)CC)CC4)C2)c1` (stereo not drawn), the activation was inactive: 3.79%.

For `CCc1cccc(NC(=O)CCN2C(=O)c3ccccc3Sc3ncccc32)c1`, the activation is inactive: -14.2%.

As to `Cc1cc(=O)n2nc(N(C)CC(=O)NCc3ccc(Cl)cc3)sc2n1`, the activation was inactive: 2.49%.

For `CCOc1ccc(NC(=O)Cn2c(=O)oc3cc(S(=O)(=O)N4CCC(C)CC4)ccc32)cc1`, the activation was active: 117%.

As for `O=C(NCC1CCN(Cc2ccc(F)cc2)CC1)c1cc2ccc3cccnc3c2[nH]1`, the activation was inactive: 6.37%.

As for `Cc1cc(=O)oc2cc(O[C@@H]3SC[C@@H](O)[C@H](O)[C@H]3O)ccc12`, the activation is inactive: -2.87%.

Take `COc1cc(Cl)c(C)cc1NC(=O)c1cc2c(s1)-c1c(C)cccc1OC2`: the activation is inactive: 5.67%.

In the case of `O=C(Cn1c(=O)nc(-c2ccccc2)c2cc(Cl)ccc21)NCCc1ccccc1`, the activation was inactive: -9.53%.

On to `Cc1ccc(O)c(-c2n[nH]c3c2C(c2ccccc2F)N(Cc2ccco2)C3=O)c1` (stereo not drawn), for which the activation is inactive: 13.1%.

`CCC(=O)N1CCc2cc(S(=O)(=O)NC(CC(C)C)C(=O)NCc3ccc(C)cc3)ccc21` (stereo not drawn): the activation is inactive: -4.94%.

Regarding `CCc1nn(CC(=O)N2CCN(c3cccc(C)c3C)CC2)c(=O)c2cc3sccc3n12`, the activation was inactive: -7.07%.

For the molecule `COc1cccc(CNC(=O)CCS(=O)(=O)c2ccc3c(c2)CC(C)N3C(=O)C2CC2)c1` (stereo not drawn), the activation was inactive: -14.5%.

For `Cc1sc2ncn(CC(=O)N3CCN(c4ccc(F)cc4)CC3)c(=O)c2c1S(=O)(=O)N1CCN(c2ncccn2)CC1`, the activation was inactive: -2.8%.

On to `Cc1cc2[nH]c(=O)c(=O)[nH]c2cc1S(=O)(=O)Nc1cccc(C(F)(F)F)c1`, for which the activation is inactive: -0.845%.

Consider `CCn1cc(C(=O)O)c(=O)c2cc3c(cc21)OCO3`, for which the activation was inactive: 3.53% and inactive: 0.199%.

Turning to `COc1ccc(OC)c(NS(=O)(=O)c2ccc(Br)s2)c1`, the activation is inactive: -33.8%.

As for `CCOc1ccc(NC(=O)c2oc3ccccc3c2NC(=O)Cc2cccc(C)c2)cc1`, the activation is inactive: -28.5%.

For the molecule `COC(=O)Nc1nc2ccc(S(=O)c3ccccc3)cc2[nH]1` (stereo not drawn), the activation is inactive: 32.8%.

With `CN1CCN(CCC(=O)Nc2ccc(Cl)cc2)CC1`, the activation was inactive: 13%.

Take `COc1ccc(C(=O)Oc2ccc(C(c3c(C)[nH][nH]c3=O)c3c(C)[nH][nH]c3=O)cc2OC)cc1`: the activation was inactive: -25.5%.

For `CC(C)c1ccc(NC(=O)CCNS(=O)(=O)c2cccc3nsnc23)cc1`, the activation was active: 75%.

Take `Cc1cccc(NC(=O)CSc2nc(=O)n(Cc3cccnc3)c3c2CCC3)c1`: the activation was inactive: -4.58%.

In the case of `COc1ccc(NC(=O)c2c(C)oc3ccc(O)c(CN4CCOCC4)c23)cc1`, the activation was inactive: -1.04%.

As for `Cc1ccc(NC(=O)Cn2c(=O)ccc3cc(S(=O)(=O)N4CCC(C)CC4)ccc32)cc1C`, the activation is active: 70%.

For the molecule `CCCN1C(C(=O)c2ccccc2)=C(OC(=O)c2ccc(C)cc2)c2ccccc2S1(=O)=O`, the activation is inactive: -32%.

In the case of `O=C(COc1ccc(Cl)cc1)NCCc1csc(-c2cccc(F)c2)n1`, the activation was active: 76.7%.

In the case of `COc1cc(NC(=O)c2ncn(-c3ccccc3)n2)cc(OC)c1`, the activation was inactive: -10.5%.

`CC(=O)c1ccc(NC(=O)CSc2nccn2Cc2ccc3c(c2)OCO3)cc1`: the activation was inactive: -3.38%.

For `Cc1cc(SCC(=O)NCc2ccc(F)cc2)nc(=O)[nH]1`, the activation was inactive: 1.92%.

`Cn1ncc(C(=O)N2CCN(c3ccccc3F)CC2)c1C1CCN(C(=O)OC(C)(C)C)CC1`: the activation is inactive: -16%.

Take `CCCCN(CC)CCCNC(=O)c1cn(CC)c2ccc(S(=O)(=O)N3CCOCC3)cc2c1=O`: the activation was inactive: -0.74%.

Turning to `COc1ccc(C2N3CC4(C)CN2CC(c2ccccc2)(C3)C4=O)cc1` (stereo not drawn), the activation is inactive: -13.4%.
